Assay results as given in patent US10548984B2 (priority 2015, dated 2020).
Like-named read-outs stand apart in the source and are kept apart here. Non-standard residues stand in square brackets, D forms with d. Residues, ends and D or L forms follow the SMILES beside them.

Tests used:
[1] = test system: C57BL/6 mice
[2] = test system: C57BL/6 mice; remark: listed apart in the source
[3] = test system: C57BL/6 mice; settings: mouse, in vivo
[4] = test system: C57BL/6 mice; settings: mouse, in vivo; remark: listed apart in the source
[5] = Procedure: To analyse siRNA integrity in the presence of serum nuclease, naked siRNA or siRNA/peptide complexes (80 pmol) were incubated at 37° C. in 50% mouse serum for up to 72 hours. siRNA complexed with the RVG-9r peptide was included as a control. Aliquots taken at various time points (0 min, 2 hours, 8 hours, 24 hours, 48 hours, and 72 hours) were digested with proteinase K (2 mg/ml, Sigma Aldrich) for 1 hours and frozen in 2× urea-TBE loading buffer. Samples were analysed for the presence of intact siRNA on 15%-urea-polyacrylamide gels in TBE buffer and visualised on a UV-transilluminator subsequent to ethidium, bromide staining (FIG. 13).
[6] = MPTP + siRNA/peptide complex i.v., 20 rpm, max 60 s, 5 days after MPTP
[7] = MPTP + siRNA/peptide complex i.v., 1 to 20 rpm over 5 min
[8] = siRNA complexed with peptide, 50% mouse serum, 37° C.

Row | Compound | fixed speed rotarod performance compared to control mice ([1]; mouse, in vivo) [%] | accelerated rotarod performance compared to control group ([2]; mouse, in vivo) [%] | TH-ir fibres in striatum compared to the control group [3] [%] | TH positive neurons in the SNpc compared to the control group [4] [%] | fixed speed rotarod performance compared to control mice [1, 6] [%] | accelerated rotarod performance compared to control group [2, 7] [%] | partial stability / partial protection of siRNA (intact siRNA detected) [5] | siRNA integrity retained [5] | TH-ir fibres in striatum compared to saline treated control group [3] [%] | TH positive neurons in the SNpc compared to control [4] [%] | partial stability / partial protection of siRNA (intact siRNA detected) [5, 8] | siRNA integrity retained [5, 8]
1 | CN1CC=C(c2ccccc2)CC1 [MPTP, reference compound] | 30 | 69 | 43 | 57 |  |  |  |  |  |  |  | 
2 | CC[C@@H](C)[C@@H](NC(=O)[C@@H](Cc1ccccc1)NC(=O)[C@H](NC(=O)[C@@H](CC(N)=O)NC(=O)[C@@H](CO)NC(=O)[C@@H](CCCNC(=N)N)NC(=O)CNC(=O)[C@@H](CCCCN)NC(=O)CN(C)C(=O)CN(C)C(=O)CN(C)C(=O)CN(C)C(=O)[C@@H](CCCNC(=N)N)NC(=O)[C@@H](CCCNC(=N)N)NC(=O)[C@@H](CCCNC(=N)N)NC(=O)[C@@H](CCCNC(=N)N)NC(=O)[C@@H](CCCNC(=N)N)NC(=O)[C@@H](CCCNC(=N)N)NC(=O)[C@@H](CCCNC(=N)N)NC(=O)[C@@H](CCCNC(=N)N)NC(=O)[C@H](N)CCCNC(=N)N)[C@H](C)O)C(=O)N[C@H](CC(=O)O)C(=O)N[C@H](CS)C(=O)O [Test-RI-peptide, H-rrrrrrrrr-Sar-Sar-Sar-Sar-kGrsntfidc] |  |  |  |  | 75 | 95 | up to 24 hours | at least 8 hours | 72 | 82 |  | 
3 | CC[C@H](C)[C@H](NC(=O)[C@H](CC(=O)O)NC(=O)[C@@H](N)CS)C(=O)N[C@@H](Cc1ccccc1)C(=O)N[C@H](C(=O)N[C@@H](CC(N)=O)C(=O)N[C@@H](CO)C(=O)N[C@@H](CCCNC(=N)N)C(=O)NCC(=O)N[C@@H](CCCCN)C(=O)NCC(=O)NCC(=O)NCC(=O)NCC(=O)N[C@H](CCCNC(=N)N)C(=O)N[C@H](CCCNC(=N)N)C(=O)N[C@H](CCCNC(=N)N)C(=O)N[C@H](CCCNC(=N)N)C(=O)N[C@H](CCCNC(=N)N)C(=O)N[C@H](CCCNC(=N)N)C(=O)N[C@H](CCCNC(=N)N)C(=O)N[C@H](CCCNC(=N)N)C(=O)N[C@H](CCCNC(=N)N)C(=O)O)[C@@H](C)O [Test-peptide] (H-CDIFTNSRGKGGGG[dR][dR][dR][dR][dR][dR][dR][dR][dR]-OH; C-terminus assumed) |  |  |  |  | 85 | 94 |  |  | 77 | 80 | up to 24 hours | at least 8 hours
